Experimental data taken from article PMC12136788.
The list shows a part of the results.

T1: UNK ZnF1-3 (human, UniProt Q9C0B0 31-174)
T1 sequence: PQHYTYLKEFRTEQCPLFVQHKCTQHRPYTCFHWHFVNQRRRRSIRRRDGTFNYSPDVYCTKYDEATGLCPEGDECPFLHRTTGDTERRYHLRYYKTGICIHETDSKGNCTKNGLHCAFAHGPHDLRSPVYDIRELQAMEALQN

B1: chrX:154448470:154448471:+_ENSG00000155959_ENST00000286428|hu_hu|FALSE|FALSE (ssRNA)
RNA: GGGAGUUCUACAGUCCGACGAUCAUCCAGCUUCUUUAAUACUGUAUCUGCAGUCUCAUUCCCAGGCUGUUUCAUGAAGGAAUCUACAUCUUCCACAAACACGGCCUCAGGAAUCCCCAGGUGGAGCCGCCGCCCAUUCCCUGUCAACAGAGGAUUGAGCAUCA
B2: chr10:20042908:20042909:+_ENSMUSG00000037608_ENSMUST00000043881|mus_hu|motif|central (ssRNA)
RNA: GGGAGUUCUACAGUCCGACGAUCGGAACGUGAACGACCUCGUCUAGGACUCCUAGAGUGCCUUCUAUUCCAGACAGGUCGGUAACCACCUCGAUGAUAUCUACCUCCUCCUCCUUGAUAAUACCCUCUACCCCUUCCUCUGUACAACAGAGGAUUGAGCAUCA
B3: chr8:59359966:59359967:+_ENSG00000215114_ENST00000399598|hu_mus|FALSE|FALSE (ssRNA)
RNA: GGGAGUUCUACAGUCCGACGAUCCGCAAAUUCAGGACGUGACCGUACUAUAAAGUCUCGUACAUCCAGAAUCCGGUGUGUGCUAUUGAAUCUCUGUACGAGACGACUUCCAUCUGCCAACCUGAUCUGAAUUUUUGUGGUGGGCAACAGAGGAUUGAGCAUCA
B4: chrX:119387588:119387589:+_ENSG00000177485_ENST00000326624|hu_mus|motif|central (ssRNA)
RNA: GGGAGUUCUACAGUCCGACGAUCUGAUAUGCUUUUAACCUGUGACAGUGGGACACCAAGCUCUGCUAUAAAUUUCACGCCGGGUAACUGCCCUGAUUUAAUUAACUCGUCAAGCAAAUCUGCUCUAACACGGACAACUUUGGACAACAGAGGAUUGAGCAUCA
B5: chr4:138441076:138441077:-_ENSG00000189184_ENST00000507846|hu_mus|FALSE|FALSE (ssRNA)
RNA: GGGAGUUCUACAGUCCGACGAUCGGAUAAAUCAGACAAAAUUGCAGUAACAAAAAAAGUGACUUUAUAAAUGUUCAUAUGCUAAAAAUACAAGCAAAACUGUGAUAGCAUGCACAAGAGACAAAAGCUAAAGGUGAAUAAUUACAACAGAGGAUUGAGCAUCA
B6: chr1:59924863:59924864:+_ENSMUSG00000067336_ENSMUST00000087435|mus_mus|motif|central (ssRNA)
RNA: GGGAGUUCUACAGUCCGACGAUCGUUGCCAAAUUUUAGCCGGGGUUCUUUUGUUGAAUUUUUGGUGUUCAAAGGCAAACGGGUAGGUCUCUUAGGAAGGUUCUGUUGCUUAGGGAGAGGAUAGAUCUGAGCAGGUGGAACAUCCAACAGAGGAUUGAGCAUCA
B7: chr15:76911001:76911002:-_ENSMUSG00000033565_ENSMUST00000166610|mus_hu|FALSE|FALSE (ssRNA)
RNA: GGGAGUUCUACAGUCCGACGAUCAAGAGCAUGACAAAAUAAAAACACACAAAUUUACGUCUGAUGUUCACCUUGCCCACUAUUUUUUUUUCCUAUCUUAAAACAGUGCAAACAGGUAACUUAUGCUUUUAAAACACCACGACCCAACAGAGGAUUGAGCAUCA
B8: chr7:44244176:44244177:+_ENSG00000106636_ENST00000223369|hu_mus|hu_hu_hu_mus_False|48_98 (ssRNA)
RNA: GGGAGUUCUACAGUCCGACGAUCACUGUCGCUCCGGACGUAGACGUGGCAAAGAUACUCUUGUUCUUUGACAGAAGCUCUGCUGCCUUUCGAUGAGCGUUCCACAAUCAGUUGACUUGUAAAGGUCAUGAAUUCCUGCACACUCAACAGAGGAUUGAGCAUCA
B9: chr8:22470488:22470489:+_ENSG00000158941_ENST00000522599|hu_hu|FALSE|FALSE (ssRNA)
RNA: GGGAGUUCUACAGUCCGACGAUCUGACCCAUCACCAACAGUAAGAAACCACAUUGUUAUAUGUAUUCAAUACAAACUGAACUAAAAGAACUGGAAACAAUCGAAAUCCCUCACAUUCAAUAAAUGGAAAAAGAAUCCAUGCUACAACAGAGGAUUGAGCAUCA
B10: chr2:140009677:140009678:+_ENSMUSG00000027384_ENSMUST00000044825|mus_mus|motif|central (ssRNA)
RNA: GGGAGUUCUACAGUCCGACGAUCGCUGCUAACCACCAGGUCAAACGUGUUUUCUUGGAAGGGAAGGAAUUCUUCAUCAGCGGAAAUAUUCACAGUAGGAAUAUCUGUUUCUAAAGAAUUUUUCAAAGCAUGCUCUGCAAUGUCCAACAGAGGAUUGAGCAUCA
B11: chr21:34922442:34922443:+_ENSG00000159140_ENST00000381679|hu_mus|FALSE|FALSE (ssRNA)
RNA: GGGAGUUCUACAGUCCGACGAUCCUCAGUAGGUGUCUCUGACACUAUCGUGAGGGUUUCUGAUGGCUCAACCACUUUUGCUAUGGGAAGCUCUACCAGCGUGGUCUUUGACGUCUCUGGAGGCAUAGUCUCCAAAGAUUUCAGCAACAGAGGAUUGAGCAUCA
B12: 40045834_40047000_1346_CDS_ENSMUSG00000026074_ENSMUST00000163854|mouse|control|control (ssRNA)
RNA: GGGAGUUCUACAGUCCGACGAUCGUUCUCCUGCUGCAGUCUCAGGAAAUCACGUCGCAGAGUUGACUCUCCAGGCACAUUGACGAUGGAACUUGGCUCUCCCUCCUGCUCAGGCACUUCCUCCUCCUCCUCCUCGCUCCCGCUCAACAGAGGAUUGAGCAUCA
B13: chr22:19452774:19452775:-_ENSG00000070010_ENST00000399523|hu_hu|hu_hu_hu_mus_False|68_78 (ssRNA)
RNA: GGGAGUUCUACAGUCCGACGAUCCUUCUCAUUGUAGUUGAUAGCAAUCACAUCUCCGGUGGUCAGACAGGCAAAGUUUCUCAAUGCAUUUUCUAAUACCGCUUUAGGGUUGGUAAUAUCCAGGAAGUCUGGGCUCUGAGGCUGCAACAGAGGAUUGAGCAUCA
B14: 195012529_195013098_2139_CDS_ENSG00000114331_ENST00000326793|human|control|control (ssRNA)
RNA: GGGAGUUCUACAGUCCGACGAUCCGUCACCAAAGAGCCCCCUAAUACAGCCUGAAUAAGUGGUGUCGCUUUGUUUUCCUCUGAAUUGGCCCAGUUCACGUCUGCACCAUGAGCCAAAGCCUCAGCCAUUUUAGGAAGGUUUUUCAACAGAGGAUUGAGCAUCA
B15: 135111016_135113250_72_ncRNA_ENSMUSG00000030795_ENSMUST00000128851|mouse|control|control (ssRNA)
RNA: GGGAGUUCUACAGUCCGACGAUCGGGUAGGAUAGGCCCCGUAGCUUUGAGUUGCUUGUUGGGUAUAGUCGUUUGAAGCCAUGUCCGCGCACGCGCGCAGCGCAGGCCGCCAAGCAACAAAGUUCCAGACGACCGCGAAGCGAUCAACAGAGGAUUGAGCAUCA
B16: chr6:89307369:89307370:-_ENSMUSG00000030084_ENSMUST00000163139|mus_hu|FALSE|FALSE (ssRNA)
RNA: GGGAGUUCUACAGUCCGACGAUCAGUACUGCCCAGGCCGUGGGGGCAGGACUGCACGCUGGGCGGCGGGUAGCACUUCUCGUUGUCCUCCACAGGGCCCGUGACGUGGGCCCGCAGCAGUGUCAGGUUCCCCGACAGCUUAUACAACAGAGGAUUGAGCAUCA
B17: chr11:106642794:106642795:-_ENSMUSG00000020719_ENSMUST00000021062|mus_mus|FALSE|FALSE (ssRNA)
RNA: GGGAGUUCUACAGUCCGACGAUCACUUUCCUUGUGUAAAAAUAAACACCAAAACAAAAAUCCCCCCCAAAAACACUAUCUAAGCCAAGUUGUACAUGACAUUAUAUAUGUAAAAUAAAGUACAAUUUCACUUAAUUCAGUCUUCAACAGAGGAUUGAGCAUCA
B18: 105956068_105956188_417_3pUTR_ENSG00000135974_ENST00000258457|human|control|control (ssRNA)
RNA: GGGAGUUCUACAGUCCGACGAUCAUCUCAUGUUGUUCUCUUUUCUUUUCCAUCAUUUUCCCCCAUCUAUUCUUCGGCAAAUCCCUCUGAGGCAAUGGUAUUGCAUGUUGGACAUAAAGGUCAGUAAGACUGUCUUUGUUUACUCAACAGAGGAUUGAGCAUCA
B19: chr6:21597833:21597834:+_ENSG00000124766_ENST00000244745|hu_hu|FALSE|FALSE (ssRNA)
RNA: GGGAGUUCUACAGUCCGACGAUCAAGUUAAAACUCUAGCCCUUCAGUGAAGGAGACGUAAAAUGGCGUGGGUAACAACAACUACCAAAAAAAAAAAAAAAAAAAGAAAAAAAAAAGAAAAAAAGGAAAAGGAAGGAAUAAAGACAACAGAGGAUUGAGCAUCA
B20: chr16:24801560:24801561:+_ENSG00000090905_ENST00000315183|hu_hu|FALSE|FALSE (ssRNA)
RNA: GGGAGUUCUACAGUCCGACGAUCCAUUAGAGUUGCAUUCACAGUGUCACCAUUAGCUUGGCCAUUAGGGCCUGAACAUUUGUCUCCAGAGUAAUUAGAACCAUAGGCACCCCAUGUAGUACCAUAAGAGCCUCCACUUUUUGACAACAGAGGAUUGAGCAUCA
B21: 128202819_128204660_1172_CDS_ENSG00000179348_ENST00000341105|human|control|control (ssRNA)
RNA: GGGAGUUCUACAGUCCGACGAUCGGCCCCACAGUUGACACACUCCCGGCCUUCUGAACAGGAACGAGCCUUGCUGCGCUGCUUAGGGGUGAAGCUGGAGGCCGGUCCCCCCAGGAAGCCUCCGGGGUGGAAGAGUCCGCUGCUCAACAGAGGAUUGAGCAUCA
B22: chr16:8858281:8858282:+_ENSMUSG00000022507_ENSMUST00000023150|mus_hu|motif|central (ssRNA)
RNA: GGGAGUUCUACAGUCCGACGAUCGACAAAUUCAUUAGGUGCAUUUGAAAGUAAACGCAAUGGAAAAAAGUAACAAAUGCGGAAGUUUUCUAAAAGUUUAAUGAAGCCAAUAAGGCAUAUAAAUUGUGUUCUGGCAGACAUUAACAACAGAGGAUUGAGCAUCA

Target: T1, UNK ZnF1-3
Assay: nsRBNS (natural sequence RNA bind-n-seq); RBNS binding buffer (assumed for nsRBNS): 25 mM Tris pH 7.5, 150 mM KCl, 3 mM MgCl2, 0.01% Triton X-100, 500 ug/ml BSA, 20 U/ml SUPERase-In, 4 C; UNK is unkempt and MSI1 is Musashi-1; names of the RNAs are library labels; protein concentration not given here; high values mean tight binding

Binder | binding signal [enrichment R]
B1 | 0.554
B2 | 0.828
B3 | 0.74
B4 | 1.05
B5 | 2.86
B6 | 1.52
B7 | 1.4
B8 | 0.656
B9 | 1.19
B10 | 1.24
B11 | 0.357
B12 | 1.07
B13 | 1.04
B14 | 1.04
B15 | 0.685
B16 | 0.63
B17 | 1.63
B18 | 0.422
B19 | 1.61
B20 | 1.14
B21 | 0.912
B22 | 1.22
